# Screen size: about 340,000 compounds; about 12,000 (3.5%) were called active. The shares of active, inactive and inconclusive entries below differ from those in the screen. The call rests on the fitted dose curve; in most records, active means well fitted inhibition curve with a large enough effect; inconclusive means small, poorly fitted or top-dose-only effect, or another doubt; inactive means no such curve, though single readings can be large or run the other way. No potency is given beside an inconclusive call; the fits are too rough.
# Assay: qHTS Assay for Inhibitors of Hepatitis C Virus (HCV)
# Conditions: Huh7.5.1 HCVcc-Cre (HCVcc is cell-culture hepatitis C virus) infection, luciferase reporter, 44 h; series mostly up to 41.8 µM
# In short: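 Reporter virus HCVcc-Cre (~0.5 moi) infects cells exposed to compound; seeding density 1,000 cells/well with 4 h settling beforehand. Luminescence, 15 sec read, taken 44 h post-infection following a 15 min RT substrate incubation.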
# Potency means the concentration at half of the fitted maximal effect; tags describe the fitted curve by direction and shape.
row,SMILES,Potency
1,COc1ccc(OCC(=O)Nc2ccc(S(=O)(=O)Nc3cc(C)nc(C)n3)cc2)cc1,"inconclusive [inhibitor, partial curve]"
2,CCOc1ccccc1Nc1nnc(SCC(=O)Nc2ccc3[nH]c(=O)[nH]c3c2)s1,inactive
3,C[C@]12c3[nH]c4cc(-c5ccco5)ccc4c3CCN1C(=O)[C@@H](CC(=O)NCC13CC4CC(CC(C4)C1)C3)C[C@@H]2C(=O)N1CCOCC1,active: 25.1 µM
4,Cc1cccc(N(Cc2ccccc2)C(=O)C2CCN(C(=O)c3ccccc3C)CC2)c1,"inconclusive [inhibitor, single point]"
5,COC(=O)Nc1nc2ccc(Sc3ccccc3)cc2[nH]1,"inconclusive [inhibitor, single point]"
6,Oc1ccccc1N=Nc1ccccc1O,active: 0.891 µM
7,CCN1CCN(c2cc3nc(C)n(Cc4ccccc4)c(=O)c3cc2NC(=O)c2ccccc2F)CC1,"inconclusive [inhibitor, single point]"
8,CCOC(=O)c1c(C)[nH]c(C)c1S(=O)(=O)N(C)CC(=O)Nc1cc(C)ccc1OC,inactive
9,O=C(NC(=S)NNC(=O)c1ccccc1[N+](=O)[O-])c1ccccc1,"inconclusive [inhibitor, single point]"
10,CC(C)CNc1c2c(nc3ccccc13)CCC2,"inconclusive [inhibitor, partial curve, poor fit]"
11,CN(CC(=O)Nc1ccc(Cl)cc1)C(=O)c1sccc1-c1ccccc1,active: 12.6 µM
12,CCOC(=O)c1cccc(NC(=O)CSc2nnc(-c3ccoc3C)n2CCOC)c1,"inconclusive [inhibitor, partial curve]"
13,COCCn1cnc2c1c(=O)n(Cc1ccc(C#N)cc1)c(=O)n2Cc1ccccc1,inactive
14,COC(=O)C1=C(c2ccc(OC)c(OC)c2)C[C@@H]2CC[C@H]1N2C(=O)NCCO,"inconclusive [inhibitor, full curve]"
15,O=C(Nc1cccc(-c2cccc(F)c2)c1)C1CCN(C2CCOCC2)CC1,active: 12.6 µM
16,COC(=O)[C@H](CCSC)NC(=O)Nc1ccc(S(N)(=O)=O)cc1,inactive
17,COc1ccc(C(=O)/C=C/C(=O)N(CC(=O)NC2CCCCC2)Cc2ccccc2)c(O)c1,"inconclusive [inhibitor, single point]"
18,O=C(NNC(=O)c1cc(-c2ccc(Br)cc2)nc2ccccc12)c1csc(N2CCOCC2)n1,"inconclusive [inhibitor, partial curve]"
19,N#Cc1ccccc1Sc1ccccc1C(=O)OCC(=O)NC12CC3CC(CC(C3)C1)C2,"inconclusive [inhibitor, single point]"
20,O=C(O)C(C=C(Cl)Cl)N1CCOCC1 (stereo unspecified),inactive
21,COc1cc(/C=N/NC(=S)Nc2cccc(S(=O)(=O)N(C)C)c2)ccc1O,inactive
22,O=C(CSc1nc(=O)n(CCCN2CCOCC2)c2c1CCC2)Nc1cccc(F)c1,"inconclusive [inhibitor, single point]"

row,SMILES,Potency
1,CC1CCc2c(sc(/N=C/N(C)C)c2C#N)C1 (stereo unspecified),"inconclusive [inhibitor, partial curve]"
2,O=C(Nc1ccc(Cc2ccncc2)cc1)c1cccc([N+](=O)[O-])c1,"inconclusive [inhibitor, partial curve]"
3,C=CCn1c2ccccc2c(=O)c2cc(C#CC3(O)CCCCC3)ccc21,active: 10 µM
4,CCOC(=O)C(C)n1nc(C)c2sc3ccccc3c2c1=O (stereo unspecified),"inconclusive [inhibitor, single point]"
5,Cc1cc2cc(C#N)c(SCC(=O)Nc3nonc3C)nc2cc1C,"inconclusive [inhibitor, partial curve]"
6,CCN1CCN(c2cc(C)c3cc(NC(=S)N4CCN(c5ccccc5F)CC4)ccc3n2)CC1,"inconclusive [inhibitor, partial curve]"
7,COc1cc(SC)ccc1C(=O)N(C)CC(=O)Nc1cccc2ccccc12,"inconclusive [inhibitor, full curve]"
8,CCOC(=O)c1c(C)[nH]c(C(=O)CC(=O)OC)c1C,inactive
9,CC(C)c1ccc(C(=O)CN2C(=O)NC3(CCc4ccccc43)C2=O)cc1 (stereo unspecified),"inconclusive [inhibitor, single point]"
10,Cc1cc(S(=O)(=O)N2CCCOC2CNC(=O)C(=O)NCCc2ccco2)ccc1F (stereo unspecified),inactive
11,Cc1cc(C(=O)N/N=C/c2cc([N+](=O)[O-])ccc2O)c2ccccc2n1,"inconclusive [inhibitor, single point]"
12,O=C(CSc1nc2cc(Cl)ccc2c(=O)n1Cc1ccco1)Nc1ccc(S(=O)(=O)N2CCOCC2)cc1,"inconclusive [inhibitor, partial curve]"
13,CCCNC(=S)N1CCN(c2nc(-c3cccc(OC)c3)cs2)CC1,"inconclusive [inhibitor, single point]"
14,COc1ccccc1NC(=S)N(Cc1ccco1)Cc1cc2ccc(C)c(C)c2[nH]c1=O,"inconclusive [inhibitor, partial curve]"
15,CCOc1ccc(NC(=O)Cn2cc(C(C)=O)c3ccccc32)cc1,"inconclusive [inhibitor, partial curve]"
16,CCOC(=O)C(NC(=O)c1cccc(Cl)c1)(Nc1sc2c(c1C(N)=O)CCC2)C(F)(F)F (stereo unspecified),active: 12.6 µM
17,CC(C)CCNC(=O)C1CCN(Cc2cccc(OCc3ccccc3)c2)CC1,"inconclusive [inhibitor, partial curve]"
18,COc1ccc(CN(C)C(=O)c2ccc(COc3ccccc3)cc2)c(OC)c1,"inconclusive [inhibitor, single point]"
19,CCC(Sc1nc2n[nH]c(C)c2c(=N)n1-c1ccc(C)c(Cl)c1)C(=O)N1CCOCC1 (stereo unspecified),"inconclusive [inhibitor, single point]"
20,CCOC(=O)C1CCCN(C2=NC(=O)/C(=C/c3ccc(OC)cc3OC)S2)C1 (stereo unspecified),"inconclusive [inhibitor, partial curve]"
21,O=C(c1ccco1)N(Cc1cccc(Cl)c1)C1CCS(=O)(=O)C1 (stereo unspecified),inactive
22,Cc1ccccc1C(=O)NNC(=S)Nc1cccc(C(F)(F)F)c1,"inconclusive [inhibitor, single point]"

row,SMILES,Potency
1,Oc1ccc(-c2csc(Nc3ccc4c(c3)OCO4)n2)c(O)c1,"inconclusive [inhibitor, single point]"
2,COc1ccc(NC(=O)COc2ccccc2)cc1NC(=O)c1ccco1,"inconclusive [inhibitor, partial curve]"
3,COC(=O)c1cccc(NC(=O)CCc2ccccc2)c1,"inconclusive [inhibitor, single point]"
4,O=C(CCNS(=O)(=O)c1ccc(Br)cc1)NCCc1ccc(Cl)cc1,"inconclusive [inhibitor, single point]"
5,O=C(Nc1cc(Cl)ccc1N1CCOCC1)c1ccc(N2CCCCC2)c([N+](=O)[O-])c1,"inconclusive [inhibitor, single point]"
6,O=C(NCc1nnc(SCc2ccc(C(F)(F)F)cc2)n1-c1ccccc1)C12CC3CC(CC(C3)C1)C2,"inconclusive [inhibitor, single point]"
7,CC(NC(=O)COC(=O)/C=C/c1ccco1)c1ccccc1 (stereo unspecified),inactive
8,COc1ccccc1Sc1nc(-c2ccccn2)ncc1OC,"inconclusive [inhibitor, single point]"
9,COc1ccccc1NC(=O)c1cc(Cl)nnc1Cl,"inconclusive [inhibitor, single point]"
10,CCOCCn1c(CN2CCC(Cc3ccccc3)CC2)nc2c1c(=O)n(C)c(=O)n2C,"inconclusive [inhibitor, partial curve]"
11,C=CCn1c(SCC(=O)c2ccc(O)c(O)c2)nnc1-c1cccc(C)c1,"inconclusive [inhibitor, single point]"
12,O=[N+]([O-])c1ccc(-c2ccc(C=Nc3cccc4ccccc34)o2)cc1,inactive
13,CC(=O)N(C(C)=O)n1c(/C=C/c2ccc([N+](=O)[O-])cc2)nc2ccccc2c1=O,inactive
14,Cc1cc(Cl)c2oc(C(=O)N3CCN(C(=O)c4ccco4)CC3)c(C)c2c1,"inconclusive [inhibitor, partial curve]"
15,CCOc1ccc(C(=O)NCC(=O)N2CCN(C/C=C/c3ccccc3)CC2)cc1OCC,"inconclusive [inhibitor, full curve]"
16,Cc1ccc(Cl)c2sc(N3CCN(C(=O)c4ccco4)CC3)nc12,"inconclusive [inhibitor, single point]"
17,Cc1ccccc1Nc1nc(Nc2ccccc2C)nc(SC2=NCCS2)n1,"inconclusive [inhibitor, single point]"
18,Cc1cc(N2CCN(C(=O)c3ccco3)CC2)n2nc(-c3cccc(Cl)c3)cc2n1,active: 10 µM
19,COc1ccc(C(=O)/C=C/C(=O)N(CC(=O)NC2CCCCC2)CC2CCCO2)c(O)c1 (stereo unspecified),"inconclusive [inhibitor, single point]"
20,CCOC(=O)/C(=N\Nc1cc(Cl)ccc1Cl)N1CCN(CC)CC1,"inconclusive [inhibitor, partial curve]"
21,CC(C)C(=O)Nc1nnc(S(=O)(=O)N2CCCc3ccccc32)s1,inactive
22,Cc1cccc(NC(=O)c2ccc(N(C)C3CCCCC3)c([N+](=O)[O-])c2)n1,active: 14.1 µM
